# Whole data set: some 33,000 sequences, median “E-score (-0.5 to 0.5)” near -0.054, cut for the highest 2% near 0.39. The list shows a part of the results.
# Molecular target: Ylr278c (UniProt Q05854)
# Assay: PBM E-score (8-mer binding enrichment) (E-score (-0.5 to 0.5)); higher = stronger / more preferred TF binding; most listed sequences are background and not binding sites
# Conditions: protein concentration: 200 nM; construct: GST-DNA-binding domain
# In short: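 The E-score, a modified Wilcoxon-Mann-Whitney statistic, was computed by the Universal PBM Analysis Suite for every ungapped eight-base word pooled with its reverse complement. Scans behind it were normalised with masliner after bound GST-tagged yeast transcription factors were detected with fluorescent anti-GST. The proteins, at about 100-200 nM, had been applied to universal all-10-mer Agilent arrays made double-stranded by primer extension.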
row,Sequence,PBM E-score
1,CGGCGGCC,0.322
2,TACTAACA,-0.187
3,CATTGTGC,-0.0596
4,CAGGTGCG,0.155
5,AGTCGTGC,-0.245
6,AGGTCCCC,0.019
7,AGTTGCAC,-0.113
8,ATGTTAGC,-0.0158
9,ACTCAATC,-0.0725
10,TAGTTAGA,-0.0721
11,ACGTTCGC,-0.0937
12,AGAACGGC,0.0608
13,CCATGAAC,-0.0376
14,TATGGACA,0.0133
15,ACTGGCTC,-0.0994
16,AATCAACG,-0.105
17,GGTTGTAC,0.103
18,CAAAAATA,0.122
19,ATGAACGC,0.00098
20,GTCGAAAC,-0.0444
21,ATAGCGTC,-0.075
22,GCCACGCC,-0.0772
23,CACTTCGA,-0.174
24,CTACAGGC,-0.0765
25,CCAAATCC,0.148

row,Sequence,PBM E-score
1,GCGAGGGA,-0.056
2,ACATTTCC,0.261
3,ACATGTTG,-0.0903
4,GATTCAGC,0.0113
5,TCCTATAA,-0.0721
6,CAATAATG,-0.111
7,GAAGACAA,-0.0383
8,TGAAGAAA,-0.0302
9,GCCTAGAA,-0.217
10,CTATCCGA,0.0513
11,CCACATCC,0.0271
12,CAGACTGG,-0.271
13,GGCACAAC,-0.0546
14,CAAAGGTA,-0.144
15,TGTTCCAA,-0.31
16,CCTCACAC,-0.296
17,ACTACTGC,-0.0745
18,CGAGCTCC,0.256
19,GTTCCTAA,-0.0001
20,GCATGAGA,-0.151
21,CCAACTCA,-0.093
22,ACATTGAC,-0.179
23,AGGGGTGA,-0.235
24,CAAACGGG,0.14
25,GAACCGTA,-0.0428

row,Sequence,PBM E-score
1,CCGCAGCG,0.299
2,GCGTAAAC,0.11
3,CTCGCTGA,-0.0594
4,ACTTTGGC,0.0656
5,ACTATCGA,-0.169
6,ATAAAACG,0.155
7,AATCCGAA,0.39
8,GCATTTCA,0.0527
9,GATATGGA,0.181
10,AGGTTCGG,0.3
11,ATACATTA,-0.128
12,AGGCGACA,-0.185
13,ATCCGTGG,0.299
14,AAGCTGGC,-0.118
15,CAGGGAAA,-0.0532
16,AATGTCCC,0.0132
17,AGACCGGC,0.254
18,GTACCCAA,-0.151
19,CACATCTA,0.0303
20,GACTAGTC,-0.193
21,AGTATACC,0.0108
22,CAGAACCC,0.0591
23,CTGCCCTC,-0.303
24,GCGACCAC,0.119
25,AGAACCGA,0.0209

row,Sequence,PBM E-score
1,GATCGAAC,-0.128
2,CAAGTTTA,-0.0938
3,GCGGTTAC,0.0892
4,CCCAGTGC,0.0379
5,GTTTTGCA,-0.113
6,AGTTTCTG,-0.00765
7,GAGCTTCA,0.0127
8,AGCTCTCA,0.00229
9,CGAACGAA,0.03
10,GTTTAGTA,-0.0474
11,AAGCTCTG,-0.356
12,CTAAGCAA,-0.182
13,ACGAATTG,-0.117
14,GCTGAGGA,-0.0366
15,ACGGTTAG,-0.182
16,TAACAGCA,-0.118
17,AATCCGAG,0.288
18,AGGAATGC,-0.169
19,AACAGCAC,0.12
20,GGCCTTGA,0.0118
21,TCTTTCAA,-0.0973
22,CTTTGACC,0.0264
23,ACGTACCA,-0.256
24,AATCTCTC,-0.0881
25,GCATCGGA,0.437

row,Sequence,PBM E-score
1,CGGATTCA,0.161
2,GTAGTGGA,-0.0732
3,ACCACTCG,-0.0078
4,CCCTCCTC,-0.257
5,AGTCTTTG,-0.289
6,ATAGCAGC,-0.218
7,AAATAAGT,-0.199
8,ACCCTAGC,-0.135
9,ATACATAC,-0.218
10,CGTCATGA,-0.0752
11,ATACCGAG,0.108
12,CTCATTTC,-0.0723
13,CGTGAACA,-0.0181
14,AATTAGGC,0.0429
15,ATATGTGC,-0.0208
16,ATTTGCCC,0.197
17,ACTGGTAC,0.0574
18,ACGAGGTC,-0.113
19,ACCCGAAA,0.143
20,GGGTATTA,0.0478
21,CATAGAGG,-0.289
22,GCGGGTAA,0.0108
23,AGCATTAT,-0.122
24,GGCCGTAC,0.144
25,CAGTCATC,-0.0775

row,Sequence,PBM E-score
1,CCACCTGC,-0.15
2,CCTTTCTC,-0.137
3,CGTACCGA,0.0386
4,ACAAACAA,-0.0979
5,CTGCATCC,-0.029
6,ATATATTC,0.168
7,CCTAATTA,-0.112
8,CCCCCATC,-0.159
9,GTCCTTAA,-0.225
10,AATCCGGC,0.425
11,TAGGTCAA,-0.286
12,CGTAATAG,-0.152
13,ATAGTCTA,-0.141
14,TCCGTCCA,0.292
15,ACTACCTG,-0.0406
16,GAGTGGCA,-0.00206
17,AGTCTCAA,-0.118
18,GTACACAC,-0.0886
19,CAGCCACG,0.00744
20,ACAAGGCA,-0.157
21,GTGGCGGA,0.35
22,CCTTGGAA,-0.0587
23,AGGATACA,-0.226
24,AAACTCTT,-0.269
25,GACAAGGA,-0.0863

row,Sequence,PBM E-score
1,CTAGTGCC,0.0373
2,AGAAATCC,0.269
3,AGGGATTA,-0.223
4,AATCCGTC,0.297
5,CGAAGAAG,0.0474
6,ACCCAAGC,-0.158
7,GAACGGGA,0.0884
8,CCTGAGCA,-0.141
9,ACTACCAC,-0.0486
10,ATTGAGAA,-0.0303
11,ACCGTCGA,-0.112
12,GGCGTAAA,0.136
13,ACCTGTCG,0.0945
14,CGTCGAAG,-0.128
15,CGTCCATC,0.145
16,CGAAGATC,-0.0407
17,AGTGGTAA,-0.139
18,TGACTAAA,-0.0819
19,CTAAATAC,-0.0339
20,CTTGATGA,0.0282
21,TGGGCCCA,0.026
22,TAACCAAA,-0.0596

# Source: the supplement of paper PMC3334620
